# Data taken from PubChem BioAssay AID686978 (National Center for Advancing Translational Sciences (NCATS), 2013).
# Where “and” joins values, the source holds several entries; their conditions need not be identical. Equal values may be shown once. Out of some 420,000 compounds screened, about 64,000 (15%) were called active. This list was built around the results that the source calls inconclusive (neither active nor inactive); the mix of calls is not that of the screen. Calls follow the shape of the dose curve; as a rule, active = well fitted inhibition curve with a large enough effect; inconclusive = small, poorly fitted or top-dose-only effect; inactive = flat fitted curve, though single readings scatter. Potencies of inconclusive entries are left out as doubtful fits.
# Assay: qHTS for Inhibitors of human tyrosyl-DNA phosphodiesterase 1 (TDP1): qHTS in cells in absence of CPT; also: nearly all actives have a fitted effect of over 55% in size
# Details: DT40 Tdp1-/- hTDP1 cells, no CPT, ATP luminescence, 48 h; activity change, negative = growth inhibition: at 46.2 µM (top of the series)
# Procedure, shortened: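 Luminescent ATP content (CellTiter-Glo) served as the growth readout. Knockout chicken DT40 cells expressing human TDP1 were exposed to compounds without camptothecin for a minimum 48 hr at 37 °C.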
# % is scaled to controls: 0 for no effect and ±100 for the full control effect; potency is read from the fitted curve at half-maximal effect; tags tell the direction and shape of the fitted curve.
SMILES,Potency,"activity change, negative = growth inhibition"
Cc1cccc(C)c1NC(=O)CNC(=O)CCCc1c[nH]c2ccccc12,"inconclusive [inhibitor, single point]",–
O=C(Nc1ccc([N+](=O)[O-])cc1)C(=O)Nc1cccc(C(=O)O)c1,"inconclusive [inhibitor, partial curve, poor fit]",–
CC(C)CN(C(=O)C1COc2ccccc2O1)c1c(N)n(CC(C)C)c(=O)[nH]c1=O (configuration not stated),inactive,–
O=C(Nc1ccccc1)Nc1cccc(NC(=O)Nc2ccccc2)c1F,inactive,–
CCc1ccc(NC(=O)C2C3C=CC(C4CC34)C2C(=O)O)cc1 (configuration not stated),"inconclusive [inhibitor, partial curve]",–
COc1ccc(-c2nc(C#N)c(NC(C)c3ccccc3)o2)cc1OC (configuration not stated),active: 16.4 µM,–
Cc1ccc(N=Nc2ccc(N)cc2C)c(S(N)(=O)=O)c1,inactive,–
Cc1cccc(N2CCN(C(=O)COc3cccc4c3OC(C)(C)C4)CC2)c1C,"inconclusive [inhibitor, single point]",–
COc1ccc(-c2onc(C)c2-c2ccc3c(c2)OCCO3)c(O)c1,active: 18.4 µM,–
COc1ccc(OC)c(NC(=O)CCNS(=O)(=O)c2ccc3c(c2)CC(C)N3C(C)=O)c1 (configuration not stated),inactive,–
CCc1oc(-c2ccc(OC)cc2)c(C(=O)OCCCCCO)c1C(C)OCCO (configuration not stated),active: 16.4 µM,–
Cc1ccc(-c2cc(C(=O)N3CCN(c4ccc(O)cc4)CC3)c3ccccc3n2)cc1,"inconclusive [inhibitor, single point]",–
Cc1ccc(NC(=O)CSc2nc3ccc(NC(=O)CCc4ccccc4)cc3s2)cc1,"inconclusive [inhibitor, full curve]",–
COCCN(C(=O)c1cccc(-n2cnnn2)c1)c1c(N)n(CC(C)C)c(=O)[nH]c1=O,inactive,–
COc1ccc2c(/C=C/c3cc[n+](C)cc3)c[nH]c2c1,active: 7.31 µM,–
CC(C)CC(=O)Nc1ccnn1C1CCN(C(=O)c2ccc(Cl)cc2F)CC1,"inconclusive [inhibitor, partial curve, poor fit]",–
O=C(NCCN1CCOCC1)c1sc2cc(Cl)ccc2c1Cl,–,inconclusive: -32.7% [inhibitor]
Cc1ccc(S(=O)(=O)Nc2ccccc2CNc2ccc(Br)cn2)cc1,active: 29.1 µM,–
CC[C@@H](C)C(NC(=O)OC(C)(C)C)c1cn([C@@H](Cc2cc3ccccc3[nH]2)C(=O)N2CCN(C(=O)OC(C)(C)C)CC2)nn1 (some centres not stated),active: 23.1 µM,–
CCN(C(=O)Cn1c(=O)n(Cc2ccccc2)c(=O)c2c1c1cc(OC)ccc1n2C)c1ccccc1,inactive,–
CCOC(=O)c1ccc(CS(=O)c2ccc(Cl)cc2)o1 (configuration not stated),"inconclusive [inhibitor, full curve, poor fit]",–
COc1cc(Cl)c(C)cc1NC(c1ccccc1)c1nnc(-c2ccccc2Cl)o1 (configuration not stated),"inconclusive [inhibitor, single point]",–
COCCCn1c(CCC(=O)O)ccc1-c1ccc(F)cc1,inactive,–
CCc1c(C)sc2nc(C(C)C)nc(SCC(=O)N3CCc4ccccc4C3)c12,active: 20.6 µM,–

SMILES,Potency,"activity change, negative = growth inhibition"
Cc1cccc(C(=O)NCc2nnc(SCC(=O)NC3CCCC3)n2C)c1,inactive,–
CC(=O)Nc1ccc(/C=N/N2C(C)CCCC2C)cc1 (configuration not stated),"inconclusive [inhibitor, single point]",–
Cc1cc(=O)oc(C)c1C(=O)Nc1cccc(F)c1,"inconclusive [inhibitor, full curve, poor fit]",–
Cc1ccc(CNC(=O)c2cc3ccc4cccnc4c3[nH]2)cc1,"inconclusive [inhibitor, single point]",–
CC(C)C1=NN(C(=O)c2ccccc2)C(O)(C(C)(C)C)C1 (configuration not stated),active: 6.51 µM,–
Cc1ccc(Nc2nnc(SCC(=O)Nc3ccccc3[N+](=O)[O-])s2)cc1,"inconclusive [inhibitor, single point]",–
c1ccc(N2CCN(c3cccc(-c4cc5ccccc5s4)n3)CC2)nc1,inactive,–
COc1ccc(CN2CCCC(CO)(Cc3ccc(F)cc3F)C2)cc1 (configuration not stated),"inconclusive [inhibitor, single point]",–
Cc1ccc(C)c(N2CCN(S(=O)(=O)c3cn(C)c(C)n3)CC2)c1,"inconclusive [inhibitor, single point]",–
Clc1ccccc1OCCn1ccnc1,"inconclusive [inhibitor, full curve]",–
CCC(C)n1c(=N)c(C(=O)NC2CCCCC2)cc2c(=O)n3ccccc3nc21 (configuration not stated),active: 16.4 µM,–
CC(=O)Nc1ccc2nc(NC(=O)CS(=O)(=O)c3ccc(C)cc3)sc2c1,"inconclusive [inhibitor, single point]",–
CCOP(=O)(c1ccccc1)C(O)c1ccccc1 (configuration not stated),"inconclusive [inhibitor, single point]",–
CCOC(=O)c1c(NC(=O)CSc2nc3ccc(C)cc3[nH]2)sc2c1CC(C)(C)NC2(C)C,"inconclusive [inhibitor, single point]",–
COC(=O)c1ccccc1COc1cccn2c(N(C)Cc3cccs3)c(C)nc12,"inconclusive [inhibitor, single point]",–
CSc1nsc(SCC(=O)Nc2ccc(OC(C)=O)cc2)n1,"inconclusive [inhibitor, single point]",–
S=C(Nc1ccc(Cl)cc1)Nc1ccc2cn[nH]c2c1,"inconclusive [inhibitor, partial curve, poor fit]",–
CCOc1ccc(C(Nc2cccnc2)c2cc(Cl)c3cccnc3c2O)cc1 (configuration not stated),active: 8.91 µM and active: 14.6 µM,–
Cc1cc(OCC(=O)N2CCC(C(=O)O)CC2)c2c(C)cc(=O)oc2c1,inactive,–
O=C1NC(=O)/C(=C/c2cc3c(cc2Br)OCO3)S1,"inconclusive [inhibitor, full curve, poor fit]",–
COC(=O)C1CCN(Cc2ccc3c(c2)CN(C(=O)C2Cc4ccccc4O2)CCO3)CC1 (configuration not stated),inactive,–
COc1cc(NC(=O)Cc2ccccc2)cc(OC)c1,"inconclusive [inhibitor, single point]",–
CC(C(=O)Nc1ccccc1-c1ccccc1)N(C)Cc1nc2ccccc2c(=O)[nH]1 (configuration not stated),active: 20.6 µM,–
CCCOc1ccc(C2c3c(oc4ccccc4c3=O)C(=O)N2CCCN2CCOCC2)cc1 (configuration not stated),"inconclusive [inhibitor, partial curve]",–

SMILES,Potency,"activity change, negative = growth inhibition"
CC(OC(=O)COc1ccccc1Cc1ccccc1)C(=O)N(C)c1ccccc1 (configuration not stated),"inconclusive [inhibitor, partial curve]",–
CCOc1ccc2oc(C(=O)NCC(C)(C)CN(C)C)c(C)c2c1,"inconclusive [inhibitor, single point]",–
Cc1noc(C)c1COC(=O)C1CC(O)CN1S(=O)(=O)c1ccc(Cl)cc1 (configuration not stated),inactive,–
CCOC(=O)CN(C(=O)COc1nc(-c2ccccc2)cc(C)c1C#N)c1ccc(C)cc1,"inconclusive [inhibitor, single point]",–
CCCCCC(=O)N1C[C@H](n2cc(-c3ccc(F)cc3)nn2)[C@@H](O)C[C@@H]1c1ccc(Cl)cc1,active: 25.9 µM,–
CCN(CCCNC(=O)Cn1ncc2c([nH]c3ccccc32)c1=O)Cc1ccccc1,"inconclusive [inhibitor, single point]",–
COc1ccc([C@@H]2[C@@H](C)N(c3ccccc3)c3ccccc3C(=O)N2Cc2ccccc2)cc1,active: 16.4 µM,–
O=C(N/N=C(\Cc1ncc[nH]1)c1ccccc1)c1cccnc1,active: 4.61 µM,–
CCOC(=O)c1ccccc1NC(=O)COC(=O)C(CC)Oc1ccccc1 (configuration not stated),"inconclusive [inhibitor, single point]",–
O=C(CN1CCN(S(=O)(=O)c2ccccc2)CC1)Nc1ccc(Cl)c([N+](=O)[O-])c1,active: 23.1 µM,–
CC1(C)OC2OC3C(CNCCO)OC(c4ccccc4)OC3C2O1 (configuration not stated),inactive,–
CCOC(=O)C1CCCN(C(=O)COc2ccc(N(C)S(=O)(=O)c3ccc(F)cc3)cc2)C1 (configuration not stated),"inconclusive [inhibitor, single point]",–
CC(Oc1ccc2c(c1)oc(=O)c1ccccc12)C(=O)NCCN1CCOCC1 (configuration not stated),inactive,–
CC1CN(CCOCCSc2ccc(Cl)cc2)CC(C)O1 (configuration not stated),"inconclusive [inhibitor, single point]",–
O=C(N/N=C\c1ccc(-c2ccc(Cl)c(Cl)c2)o1)C(=O)N1CCCC1,"inconclusive [inhibitor, single point]",–
COc1ccccc1OCCCCN1CCN(c2ccccc2OC)CC1,"inconclusive [inhibitor, partial curve]",–
Cc1ccc(Cl)cc1NC(=O)CCc1c(C)nc2c3cccnc3nn2c1C,"inconclusive [inhibitor, partial curve, poor fit]",–
CSc1ccc(Cl)c(C(=O)NCC(C)C)c1,inactive,–
Cc1ccc(C)c(C(=O)CSc2nnc(C)s2)c1,"inconclusive [inhibitor, single point]",–
CCOC(=O)C1=CCN(S(=O)(=O)c2ccccc2F)C1c1ccc(Cl)cc1 (configuration not stated),"inconclusive [inhibitor, single point]",–
CCC(C(=O)NN1C(=O)c2ccccc2C1=O)c1ccccc1 (configuration not stated),inactive,–
CC(=O)Nc1cc2c3c(c1)CCC(=O)N3CCC2,inactive,–
Nc1ccccc1Nc1c(F)c(F)nc(F)c1Cl,inactive,–
CCOC(=O)N1CCc2c(sc(NC(C)=O)c2C(N)=O)C1,inactive,–
